According to PubChem BioAssay (NCATS):
The shares of active, inactive and inconclusive entries below differ from those in the screen. A potency beside an inconclusive call is a rough fit, not a confirmed value. The source made the active and inactive calls. The call rests on the fitted dose curve; in most records, active means well fitted inhibition curve with a large enough effect; inconclusive means small, poorly fitted or top-dose-only effect; inactive means no such curve, though single readings can be large or run the other way.

Test: Primary qHTS for small molecule stabilizers of the endoplasmic reticulum resident proteome: Secreted ER Calcium Modulated Protein (SERCaMP) assay (AID 1508630)
Settings: SH-SY5Y GLuc-SERCaMP (Gaussia luciferase released on ER calcium loss) secretion, thapsigargin, luminescence; series mostly up to 38.4 µM
How it was run: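 GLuc-SERCaMP-expressing SH-SY5Y cells, pretreated 16 h with compound, are challenged with thapsigargin to empty ER calcium stores; after 4 h, coelenterazine is added directly to the medium and luminescence is imaged.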
Potency means the concentration at half of the fitted maximal effect; tags describe the fitted curve by direction and shape.

Potency, inactive:
COc1ccc(C(=O)N2CCC3(CC2)CN(C(=O)NC(C)C)C3)cc1
COc1ccc(C(=O)N2CCC3(CCCN(c4ncccn4)C3)CC2)cc1

Potency, inconclusive:
FC(F)(F)c1cc(CN2CCC3(CCNCC3)CC2)cc(C(F)(F)F)c1 20 µM [inhibitor, single point]
COC(=O)Nc1ccc2[nH]cc(CCNC(C)=O)c2c1 25.1 µM [inhibitor, single point]
N#CCCn1c(=O)cnc2cnc(N3CCNCC3)nc21 10 µM [inhibitor, partial curve, poor fit]
COCCNC(=O)COc1ccc(OCCNC[C@H](O)COc2ccccc2)cc1 28.2 µM [inhibitor, single point]
C#Cc1cccc(Nc2ncnc3cc(OC)c(OC)cc23)c1 12.6 µM [inhibitor, single point]
CN(C)CCC1(c2ccc(Cl)cc2)Cc2ccccc2C(=O)O1 (stereo not drawn) 28.2 µM [inhibitor, single point]
